# In PubChem BioAssay (Tox21):
# Where “and” joins values, the source holds several entries; their conditions need not be identical. Identical values can stand only once. The inconclusive results got no clear call from the source; some entries with a clear call stand among them for comparison. For some assays here: A potency beside an inconclusive call is a rough fit, not a confirmed value. Calls of active or inactive are those of the source. Unless noted, calls follow the shape of the dose curve; as a rule, active = well fitted curve in the direction sought with a large enough effect in the repeat runs; inconclusive = weak or mixed curves; inactive = no such curve, though single readings can be large; an effect the other way counts as inactive or inconclusive.
# Experiments:
# [1] = qHTS assay to identify small molecule antagonists of the retinoic acid receptor (RAR) signaling pathway (AID 1159552; also: nearly all actives have a fitted effect of over 50% in size); settings: C3RL4 RARE luciferase reporter, retinol-stimulated, 6 h; series mostly up to 92.4 µM
# Procedure, shortened: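 Luminescence from a RARE luciferase reporter in C3RL4 cells served as read-out. Cells received compounds together with 1 uM final retinol and incubated 6 hr at 37 C before detection reagent was added for 30 min at room temperature.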
# [2] = qHTS assay to identify small molecule agonists of the retinoic acid receptor (RAR) signaling pathway (AID 1159553); settings: C3RL4 RARE luciferase reporter, agonist, 6 h; activation: at 73.3 µM (top of the series) unless noted; as to activation: % is scaled to controls: 0 for no effect and ±100 for the full control effect
# Procedure, shortened: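 Cell line C3RL4, RARE luciferase reporter. Treatment: compounds in DMSO, 6 hr, 37 C, 5% CO2, after overnight plating. Detection: luminescence, 30 min RT after reagent.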
# [3] = biological target: Thyrotropin receptor (Homo sapiens) (UniProt P16473); assay: qHTS assay to identify small molecule agonists of the thyroid stimulating hormone receptor (TSHR) signaling pathway (AID 1224843; calls by dose curve; also: nearly all actives have a fitted effect of over 45% in size; as to activation: % is scaled to controls: 0 for no effect and ±100 for the full control effect); settings: TSHR-HEK293 cells, cAMP HTRF, agonist mode, 30 min; activation: at 92.4 µM (top of the series) unless noted
# Procedure, shortened: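 Screening of the Tox21 10K collection used HEK293 cells engineered with TSHR at 800 cells per well. After a 30-min room-temperature compound exposure, HTRF cAMP reagents were added and fluorescence recorded 1 h later.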
# [4] = qHTS assay to identify small molecule antagonists of the estrogen related receptor (ERR) signaling pathway from Tox21 library - cell viability counter screen (AID 1224834); settings: ERR reporter cells viability, CellTiter-Fluor, 17.5 h; series mostly up to 92.4 µM; also: nearly all actives have a fitted effect of over 30% in size
# Procedure, shortened: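 Viability readout (CellTiter-Fluor fluorescence, 30 min at 37 C) multiplexed with the ERR assay; cells treated 17.5 h at 37 C with compounds delivered in DMSO.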
# [5] = qHTS assay to identify small molecule agonists of the constitutive androstane receptor (CAR) signaling pathway - cell viability counter screen (AID 1224836); settings: HepG2-CYP2B6-hCAR viability, CellTiter-Fluor, 23 h, PK11195 added to every well; series mostly up to 92.4 µM; also: nearly all actives have a fitted effect of over 45% in size
# Procedure, shortened: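 Viability read-out: CellTiter-Fluor fluorescence after 23 h compound exposure at 37 C/5% CO2 in double-stable HepG2-CYP2B6-hCAR cells, with PK11195 present at 0.75 uM final; compounds tested in 15-point titration.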
# [6] = biological target: Nuclear receptor subfamily 1 group I member 3 (Homo sapiens) (UniProt Q14994); assay: qHTS assay to identify small molecule antagonists of the constitutive androstane receptor (CAR) signaling pathway (AID 1224838); settings: HepG2-CYP2B6-hCAR luciferase, CITCO-stimulated, 24 h; series mostly up to 92.4 µM;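 also: HepG2 cells stably expressing hCAR with CYP2B6 luciferase reporter stimulated by CITCO; nearly all actives have a fitted effect of over 40% in size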
# Procedure, shortened: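 Quantitative HTS in double-stable HepG2-CYP2B6-hCAR cells. After 4 h plating, cells get compound (15 concentrations) and CITCO at 50 nM final, incubate 24 h at 37 C, then ONE-Glo luminescence is read.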
# [7] = biological target: Nuclear receptor subfamily 1 group I member 3 (Homo sapiens) (UniProt Q14994); assay: qHTS assay to identify small molecule agonists of the constitutive androstane receptor (CAR) signaling pathway (AID 1224839); settings: HepG2 hCAR CYP2B6-luciferase, agonist mode, 24 h; series mostly up to 92.4 µM; also: nearly all actives have a fitted effect of over 15% in size
# Procedure, shortened: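 Luminescence read-out (ONE-Glo, 30 min, room temperature) from double-stable HepG2-CYP2B6-hCAR cells exposed 24 h to 15-point compound series in presence of 0.75 uM PK11195 final.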
# [8] = qHTS assay to identify small molecule antagonists of the estrogen related receptor signaling pathway with the pleiotropic PPARgamma coactivator (PGC) from Tox21 10K library - cell viability counter screen (AID 1224840; active = well fitted cell-killing curve with a large enough effect in the repeat runs, not every such curve was filed as active; inconclusive = weak or mixed curves, or effect the other way; inactive = no such curve, though single readings can be large or run the other way; also: nearly all actives have a fitted effect of over 40% in size); settings: PGC/ERR reporter cells viability, CellTiter-Fluor, 17.5 h; series mostly up to 92.4 µM
# Procedure, shortened: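 Compounds in DMSO, alongside positive and negative controls, were pinned onto PGC/ERR cells (2,000 per well). Exposure lasted 17.5 hours at 37 C, followed by a 30-minute CellTiter-Fluor incubation and fluorescence reading.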
# [9] = qHTS assay to identify small molecule antagonists of the estrogen related receptor signaling pathway with the pleiotropic PPARgamma coactivator (PGC) from Tox21 10K library (AID 1224841; call rule not given here; also: actives are mostly falling curves and most rising ones were filed inactive; nearly all actives have a fitted effect of over 50% in size); settings: PGC/ERR reporter cell line, ONE-Glo luciferase, 18 h; series mostly up to 92.4 µM
# Procedure, shortened: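 Compound exposure ran 18 hours at 37 C in PGC/ERR cells (2,000/well) that had first rested 6 hours in a 37 C/5% CO2 incubator. Luciferase activity was then detected with One-Glo after a 30-minute room-temperature step.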
# [10] = qHTS assay to identify small molecule agonists of the hypoxia (HIF-1) signaling pathway - cell viability counter screen (AID 1224844; calls by dose curve; also: nearly all actives have a fitted effect of over 50% in size); settings: HRE-bla ME-180 viability, CellTiter-Glo luminescence, 17 h; series mostly up to 76.8 µM
# Procedure, shortened: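 Luminescent ATP content (CellTiter-Glo, 30 min, room temperature) served as the viability measure in HRE-bla ME-180 cells exposed to compounds for 17 hrs in low-serum medium (0.5% dialyzed FBS).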
# [11] = qHTS assay to identify small molecule antagonists of the estrogen related receptor (ERR) signaling pathway (AID 1224819; also: nearly all actives have a fitted effect of over 50% in size); settings: ERR reporter cell line, luciferase inhibition; series mostly up to 92.2 µM
# Procedure, shortened: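 LOPAC library screened for antagonism as reduced One-Glo luminescence in ERR reporter cells (2,000/well). Compounds were added after 6 h pre-incubation and left 18 h at 37C; reading followed a 30 min room-temperature reagent step.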
# [12] = system: estrogen-related receptor alpha (ERRalpha) with PGC-1alpha coactivator, human; assay: qHTS assay to identify small molecule antagonists of the estrogen related receptor signaling pathway with the pleiotropic PPARgamma coactivator (PGC) (AID 1224821; calls by dose curve; also: nearly all actives have a fitted effect of over 50% in size); settings: ERR/PGC reporter cell line, luciferase, antagonist mode; series mostly up to 46.1 µM
# Procedure, shortened: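 PGC/ERR reporter cell line, plated 6 h before compound addition, then exposed 18 h at 37 °C. Luciferase activity read by luminescence 30 min after One-Glo addition; decrease indicates antagonism.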
# [13] = qHTS assay to identify small molecule antagonists of the estrogen related receptor signaling pathway with the pleiotropic PPARgamma coactivator (PGC) cell viability counter screen (AID 1224822;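 also: viability read after 17.5 h compound exposure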); settings: ERR/PGC reporter cell line viability counter screen; series mostly up to 46.1 µM
# Procedure, shortened: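 qHTS format, DMSO compound stocks pin-transferred onto PGC/ERR cells 6 h after plating; 17.5 h exposure at 37 C, then CellTiter-Fluor fluorescence.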
# [14] = qHTS assay to identify small molecule antagonists of the constitutive androstane receptor (CAR) signaling pathway - cell viability counter screen (AID 1224837); settings: HepG2-CYP2B6-hCAR viability, CellTiter-Fluor, 23 h, co-treated with 50 nM CITCO; series mostly up to 92.4 µM; also: nearly all actives have a fitted effect of over 45% in size
# Procedure, shortened: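 Fluorescence from CellTiter-Fluor served as the viability signal. Human hepatoma HepG2 cells stably bearing hCAR and CYP2B6-2.2kb received compound plus CITCO (50 nM final) for 23 hr.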
# [15] = biological target: Luciferin 4-monooxygenase (Photinus pyralis) (UniProt P08659); assay: qHTS assay to identify small molecule inhibitors of firefly luciferase (AID 1224835); also: nearly all actives have a fitted effect of over 25% in size; settings: purified P. pyralis luciferase, luminescence inhibition; series mostly up to 115 µM
# Procedure, shortened: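 Inhibition of purified Photinus luciferase is measured by luminescence. Substrate levels (D-luciferin, ATP) sit at their KM values. Each compound is tested in a concentration series.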
# Potency is read from the fitted curve at half-maximal effect; tags tell the direction and shape of the fitted curve or compound fluorescence and quenching.
# Sequence of UniProt P16473 (P16473 whole entry, looked up): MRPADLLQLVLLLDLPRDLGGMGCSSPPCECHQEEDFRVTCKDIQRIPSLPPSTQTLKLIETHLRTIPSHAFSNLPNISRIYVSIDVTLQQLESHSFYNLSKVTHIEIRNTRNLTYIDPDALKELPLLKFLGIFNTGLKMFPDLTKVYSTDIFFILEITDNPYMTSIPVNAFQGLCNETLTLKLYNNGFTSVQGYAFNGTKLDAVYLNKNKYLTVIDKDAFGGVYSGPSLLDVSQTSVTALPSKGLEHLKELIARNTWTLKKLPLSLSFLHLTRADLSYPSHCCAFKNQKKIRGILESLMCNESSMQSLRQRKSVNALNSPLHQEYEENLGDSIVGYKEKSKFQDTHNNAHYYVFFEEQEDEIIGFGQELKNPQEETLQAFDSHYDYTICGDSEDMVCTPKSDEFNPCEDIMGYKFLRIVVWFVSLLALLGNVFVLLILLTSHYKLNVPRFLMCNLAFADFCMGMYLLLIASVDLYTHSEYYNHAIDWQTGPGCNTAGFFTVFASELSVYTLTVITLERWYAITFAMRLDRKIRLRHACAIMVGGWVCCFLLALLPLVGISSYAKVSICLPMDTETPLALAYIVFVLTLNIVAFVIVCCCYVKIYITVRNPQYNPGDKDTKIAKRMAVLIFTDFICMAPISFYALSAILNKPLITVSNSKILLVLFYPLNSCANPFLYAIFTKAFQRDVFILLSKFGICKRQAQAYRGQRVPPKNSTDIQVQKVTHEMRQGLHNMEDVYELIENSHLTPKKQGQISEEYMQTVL
# Sequence of UniProt Q14994 (Q14994 whole entry, looked up): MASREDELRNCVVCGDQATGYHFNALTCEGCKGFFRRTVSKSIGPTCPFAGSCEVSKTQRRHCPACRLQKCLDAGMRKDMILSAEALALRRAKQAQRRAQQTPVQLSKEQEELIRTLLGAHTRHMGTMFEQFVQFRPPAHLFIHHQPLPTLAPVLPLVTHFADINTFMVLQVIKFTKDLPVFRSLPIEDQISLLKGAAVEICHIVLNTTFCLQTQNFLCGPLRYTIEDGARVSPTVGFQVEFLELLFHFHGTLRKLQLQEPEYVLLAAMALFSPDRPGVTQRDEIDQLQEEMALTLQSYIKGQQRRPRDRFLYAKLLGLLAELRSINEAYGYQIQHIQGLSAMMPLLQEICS
# Sequence of UniProt P08659 (P08659 whole entry, looked up): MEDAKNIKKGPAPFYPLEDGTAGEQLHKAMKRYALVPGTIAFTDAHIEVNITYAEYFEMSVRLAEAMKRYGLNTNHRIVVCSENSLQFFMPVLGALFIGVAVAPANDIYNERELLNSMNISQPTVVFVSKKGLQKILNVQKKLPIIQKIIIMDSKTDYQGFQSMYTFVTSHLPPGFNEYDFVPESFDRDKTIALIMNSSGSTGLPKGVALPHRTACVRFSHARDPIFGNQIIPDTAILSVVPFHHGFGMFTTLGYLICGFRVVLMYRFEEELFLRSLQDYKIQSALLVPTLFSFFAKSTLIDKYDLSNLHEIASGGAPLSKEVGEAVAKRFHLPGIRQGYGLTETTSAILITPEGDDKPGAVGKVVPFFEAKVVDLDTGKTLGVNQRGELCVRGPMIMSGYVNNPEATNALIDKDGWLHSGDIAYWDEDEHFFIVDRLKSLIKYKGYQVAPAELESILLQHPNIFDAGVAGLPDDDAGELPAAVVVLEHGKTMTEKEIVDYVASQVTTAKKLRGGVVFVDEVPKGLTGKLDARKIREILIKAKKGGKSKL
compound,measurement,setting,value
CCO[Si](CCCNC(N)=O)(OCC)OCC,Potency,[1],"inconclusive: 24.3 µM [inhibitor, partial curve, poor fit]"
same,Potency,[2],inactive
same,Potency,[3],inactive
O=C(Nc1cccc(Cl)c1)OCC#CCCl,Potency,[1],"inconclusive: 68.6 µM [inhibitor, single point]"
same,activation,[2],inconclusive: -0.991% [phenotype inactive]
same,Potency,[4],active: 54.5 µM
same,Potency,[5],active: 54.5 µM
same,Potency,[6],"inconclusive: 68.6 µM [inhibitor, single point]"
same,Potency,[7],"inconclusive: 17.2 µM [activator, partial curve]"
same,Potency,[8],active: 48.6 µM
same,Potency,[9],active: 21.7 µM
same,activation,[3],inconclusive: 31.6%
same,Potency,[10],"inconclusive: 15.5 µM [cytotoxic, partial curve, poor fit]"
CCSCC,Potency,[1],inconclusive: 72.5 µM [inhibitor]
same,Potency,[2],"inconclusive: 6.46 µM [activator, single point]"
CC#C[C@]1(O)CC[C@H]2[C@@H]3CCC4=CC(=O)CCC4=C3[C@@H](c3ccc(N(C)C)cc3)C[C@@]21C,Potency,[1],active: 27.3 µM and active: 26.6 µM
same,Potency,[2],"inconclusive: 29.8 µM [inhibitor, partial curve]"
same,activation,[2],inconclusive: -14.9% [phenotype inactive]
same,Potency,[11],active: 22 µM
same,Potency,[12],active: 21.1 µM
same,Potency,[13],inconclusive: 26.6 µM [cytotoxic]
same,Potency,[4],"inconclusive: 30.6 µM [cytotoxic, partial curve] and inconclusive: 33.5 µM [cytotoxic, partial curve, poor fit]"
same,Potency,[5],"inconclusive: 61.1 µM [cytotoxic, partial curve] and inconclusive: 29.8 µM [cytotoxic, single point]"
same,Potency,[14],"inconclusive: 61.1 µM [cytotoxic, partial curve] and inconclusive: 29.8 µM [cytotoxic, partial curve, poor fit]"
same,Potency,[6],"inconclusive: 77 µM [inhibitor, single point]"
same,Potency,[8],"inconclusive: 34.4 µM [cytotoxic, partial curve]"
same,Potency,[3],inactive
same,Potency,[10],"inconclusive: 13.8 µM [cytotoxic, partial curve]"
Nc1ncnc2c1ncn2[C@H]1CC[C@@H](CO)O1,Potency,[1],inactive
COc1cccc2c1C(=O)c1c(O)c3c(c(O)c1C2=O)C[C@@](O)(C(=O)CO)C[C@@H]3O[C@H]1C[C@H](N)[C@H](O[C@@H]2CCCCO2)[C@H](C)O1,Potency,[1],"inconclusive: 0.0119 µM [inhibitor, full curve, poor fit]"
same,Potency,[2],inactive
same,Potency,[15],"inconclusive: 38.9 µM [inhibitor, single point]"
same,Potency,[8],"inconclusive: 7.5 µM [cytotoxic, partial curve, poor fit]"
same,Potency,[10],active: 12 µM
CC(=O)Oc1ccc(C2(c3ccc(OC(C)=O)cc3)Oc3ccccc3NC2=O)cc1,Potency,[1],"inconclusive: 13.3 µM [inhibitor, partial curve, poor fit]"
same,Potency,[2],"inconclusive: 29.8 µM [inhibitor, partial curve, poor fit]"
same,Potency,[4],inconclusive: 18.8 µM [cytotoxic]
CC/C=C\C/C=C\C/C=C\CCCCCCCC(=O)O,Potency,[1],"inconclusive: 77 µM [inhibitor, single point]"
same,Potency,[2],"inconclusive: 43.3 µM [inhibitor, partial curve]"
same,Potency,[15],"inconclusive: 88.6 µM [inhibitor, single point]"
same,Potency,[3],inactive
same,Potency,[10],"inconclusive: 61.7 µM [cytotoxic, single point]"
CC(C)N=C(N)/N=C(\N)Nc1ccc(Cl)cc1,Potency,[1],"inconclusive: 26.6 µM [inhibitor, partial curve]"
same,Potency,[2],inactive
same,Potency,[4],"inconclusive: 29.8 µM [cytotoxic, partial curve, poor fit]"
O=C(O)CCc1nc(-c2ccccc2)c(-c2ccccc2)o1,Potency,[1],"inconclusive: 33.5 µM [inhibitor, partial curve, poor fit]"
same,Potency,[2],inactive
same,Potency,[13],inactive
same,Potency,[14],inactive
CNc1ccc(O)cc1,Potency,[1],active: 27.3 µM
same,Potency,[2],inconclusive: 4.85 µM [activator]
same,Potency,[5],"inconclusive: 68.5 µM [cytotoxic, single point]"
same,Potency,[14],"inconclusive: 68.5 µM [cytotoxic, single point]"
same,Potency,[6],"inconclusive: 76.8 µM [inhibitor, single point]"
same,Potency,[3],"inconclusive: 30.6 µM [falling, partial curve]"
same,Potency,[10],active: 21.8 µM
